Test results reported in ChEMBL document CHEMBL4888484, “Replenishing the malaria drug discovery pipeline: Screening and hit evaluation of the MMV Hit Generation Library 1 (HGL1) against asexual blood stage Plasmodium falciparum ,using a nano luciferase reporter read-out” (2022).
Out of some 150,000 compounds screened, about 540 (0.36%) showed an effect of 50% or more. The list shows a part of the results.

Tested on: Plasmodium falciparum
Experiment: Primary screen in NF54 nanoGlo assay, in single point, at 2uM, 72h; a lower Z score goes with more inhibition
Type: functional, Erythrocyte
Details: timepoint 72 hour

Structure (SMILES)	% Inhibition	Z score
Cc1cc(C(=O)N2CCN(C(=O)Cc3c[nH]c4ccccc34)CC2)c2c(=O)[nH]n(C)c2n1	0%	0.01
CC(C)c1ocnc1C(=O)N1CCCC2CCCC21 (stereo not given)	-2%	0.24
Cc1cc(C)c2nonc2c1S(=O)(=O)N1C[C@H](C(C)C)[C@@H](N(C)C)C1	6%	-1.11
Cc1cccc(CN(Cc2cccc(C)n2)C(=O)c2cc[nH]c2C)n1	-1%	0.22
c1coc(CN2CCC(N3CCn4cccc4C3)CC2)c1	-9%	1.23
CC1CN(CC(=O)Nc2ccc(CN3CCOCC3)cc2)CC(C)O1 (stereo not given)	-6%	0.58
COc1ccc(CC(=O)N2CC[C@@]3(CCC(=O)N3)C2)cc1	-6%	0.79
Cc1cc(C(=O)N2CCOCC2)ccc1N(C)S(=O)(=O)c1ccccc1	-3%	0.36
O=C(NOc1ccc(Cl)c(Cl)c1)[C@@H]1COCCO1	-15%	2.83
CCCCN1CCN(c2ncnc3c2c(C)nn3C)CC1=O	-6%	1.15
NC1CCN(C(=O)c2cnn(-c3ncccc3Cl)c2C(F)(F)F)CC1	-3%	0.36
Cc1nn(C)c(Cl)c1S(=O)(=O)Oc1ccc2c(c1)CCC2	-7%	1.12
Cc1n[nH]c(C)c1Cc1n[nH]c(=O)n1CC1CCCCC1	-9%	1.51
CCn1nccc1CN1CCC(O)(C(F)(F)F)CC1	7%	-0.69
Cc1nnc(NC(=O)c2ncoc2-c2ccco2)n1C	31%	-3.46
Cc1nccc(O[C@H]2CCN(C(=O)Cc3ccc4c(c3)OCO4)C2)n1	-9%	1.46
CC(=O)c1ccc(C(=O)N2CCC[C@H](C(=O)c3ccc(Oc4ccccc4)cc3)C2)cc1	-9%	1.25
CCC(NC(=O)c1cccn1C(C)C)[C@H]1C[C@H](O)C1 (stereo not given in full)	-7%	1.29
Cc1ccc(NC(=O)c2ccc(COc3cc(Cl)ccc3Cl)o2)nc1	10%	-1.21
O=C(N[C@H]1CCc2n[nH]c(=O)cc2C1)c1cccc(Cl)c1Cl	-13%	2.15
CC(C)(C)OC(=O)N1C2CCC1CC(Cn1cnc(C#N)n1)C2 (stereo not given)	8%	-0.85
COc1ccc2cc1Oc1cccc(c1)CO[C@H]1CN(Cc3ccc(N4CCCC4=O)cc3)C[C@@H]1NC(=O)CN(C)C2	-18%	2.3

Structure (SMILES)	% Inhibition	Z score
Cc1ccc(F)cc1C(=O)N[C@H](c1ccc(F)cc1)c1cnn(C)c1	-9%	1.63
CC[C@H](O)CN(Cc1cccn1Cc1ccccc1C)CC1CCCCC1	-8%	0.7
O=C(NS(=O)(=O)Cc1cc(Cl)ccc1F)c1ccoc1	-5%	0.78
COc1ccc(Br)cc1CN(CCO)CCO	-1%	0.17
COCC(O)CNC(C)c1cc(Cl)cc(Cl)c1F (stereo not given)	-14%	2.07
Cc1ccc(S(=O)(=O)N(c2ccc(F)cc2)C2CCN(Cc3ccoc3)CC2)cc1	-5%	0.81
O=C(c1cccnc1)N1CCN(Cc2ccccc2)[C@@H]2CS(=O)(=O)C[C@@H]21	-13%	1.69
CC(=O)NC[C@@H]1CN(C(=O)c2csc(CC(C)C)n2)C[C@H]1c1cncn1C	-4%	0.61
O=C(c1cccc(-c2cnc3ncnn3c2)c1)N1CCC(F)(F)CC1	-2%	0.39
CC(C)(C)OC(=O)CC[C@H]1CCCCN1Cc1csnn1	-16%	2.46
O=C(c1nccc2cccnc12)N(C[C@H]1CCCO1)c1ccncc1	-12%	2.33
CCc1cc(CNC(=NC)N(C)Cc2ccc3c(c2)OCCO3)on1	-6%	1.06
CCC(=O)N(CCN(C)C)Cc1c(-c2ccccc2)noc1N1CCCCC1	35%	-1.74
Cc1ccc(CC2(CCC(=O)NC(C)CCCC(C)(C)O)CCC(=O)N2)cc1 (stereo not given)	9%	-1.2
Cc1ccc(OC2CCN(S(=O)(=O)c3cccc(Cl)c3C)CC2)nn1	-12%	2.22
Cc1cc(C(=O)Nc2cnn(Cc3ccc(F)cc3Cl)c2)c2cnn(C)c2n1	24%	-2.72
O=C(COc1ccc2c(c1)C(=O)CC2)NCc1c(F)cccc1F	21%	-2.72
Cc1occc1C(=O)N[C@H]1C[C@@H](c2nnc(Cn3cccn3)n2C)C1	7%	-1.42
CC(C)NC(=O)[C@@H]1C[C@@H](NC2CCN(C)CC2)CN1Cc1cccc2ccccc12	-9%	1.84
Cn1cc([C@]2(CNC(=O)Cc3ccc(F)cc3)CCCO2)cn1	-4%	0.67
CCN(C(=O)CC(=O)Nc1cccc(Cl)c1C)C1CCOCC1	-14%	1.57
Cc1nc(CC(=O)NCc2cccc(Cl)c2)sc1C(=O)NCc1ccccc1	-7%	0.89

Structure (SMILES)	% Inhibition	Z score
Cc1nn(C)cc1[C@H](C)NC(=O)CC(C)(C)CC(=O)c1ccccc1	-8%	1.53
Cc1cccc(C[C@H](C)n2cnc3cccc(C)c3c2=O)n1	-3%	0.66
CN(Cc1cc(-c2ccncc2)no1)C[C@]1(c2ccc(F)cc2)CCOC1	-2%	0.4
O=C(c1cc[nH]n1)N1CCC[C@H]1c1nnc(C2CCOCC2)[nH]1	0%	0.03
Cc1noc(CNC(=O)c2nnn(-c3ccccc3)n2)n1	-11%	2
COc1cccc(Oc2ncnc3oc(C)c(C)c23)c1	4%	-0.49
CC(C)CCN1C[C@]2(CCCN(C(=O)c3n[nH]c4c3CCC4)C2)CCC1=O	-6%	0.72
O=C1CCC2(CCN1)CCN(S(=O)(=O)c1ccccc1F)CC2	-10%	1.75
Cn1nc(CN(Cc2ccco2)C(=O)N2CCN(S(C)(=O)=O)C2=O)c2c1CCC2	15%	-1.91
O=C(c1ccc2c(c1)OCCO2)N1CCN(S(=O)(=O)c2ccccc2)CC1	4%	-0.48
Cc1cc(C(=O)NC2(CN3CCN(c4ccc(F)cc4)CC3)CC2)ns1	-10%	1.65
Cc1ccc(Nc2ncccc2S(=O)(=O)Nc2ccc(F)cc2)cc1F	-3%	0.42
CCOc1ccccc1NCc1cc(=O)n2nc(-c3ccc(F)cc3)nc2[nH]1	-2%	0.26
COCc1cc(N2CCCCCCC2)n2nccc2n1	-22%	2.04
CCCOc1ccc(C(=O)OC[C@@H]2CCC[N+]3(C)CCCC[C@H]23)cc1 (stereo not given in full)	-14%	1.23
Cn1ccnc1CN1CCN(C(=O)c2cccc(-c3ccncc3)c2)CC1	-7%	0.88
COc1ccc(Nc2ncnc3c(-c4ccccc4)noc23)cc1OC	-11%	2.04
COc1ccc(NC(=O)CC[C@@H]2CN(Cc3ccccc3)CC[C@@H]2N2CCCC2)cc1OC	3%	-0.47
Cc1ncc(S(C)(=O)=O)c(NCc2c(F)cccc2Cl)n1	-8%	0.96
c1cc(N2CC[C@]3(CCOC3)C2)c2sccc2n1	-10%	1.52
C[C@@](NC(=O)C1CCS(=O)(=O)CC1)(c1ccccc1)C(F)(F)F	-6%	1.04
Cc1nn(C)c2nc(NCCc3cn[nH]c3)sc12	10%	-1.83

Structure (SMILES)	% Inhibition	Z score
Cc1nc(-n2nc(C)c(CC(=O)Nc3ccccc3)c2O)sc1C	-4%	0.47
O=C(Nc1cccc(-n2cnnc2)c1)C1CC1c1ccccc1C(F)(F)F (stereo not given)	27%	-3.89
COCCc1nc2c(c(N3CCN(c4ccc(Cl)cc4)CC3)n1)CCOCC2	-14%	1.33
Cn1cc(C(=O)NC(C2CCC2)C2CCC2)c(-c2ccco2)n1	-11%	1.42
c1ccc(-c2noc([C@@H]3CCCN3Cc3ncc[nH]3)n2)nc1	-16%	1.73
c1ccc2nc(NCC3CCCCC3)cnc2c1	-16%	1.48
O=C(NCc1nccn1CCCc1ccccc1)c1ccon1	-1%	0.1
O=S(=O)(C[C@H]1COCCO1)NCCNc1ccccc1	1%	-0.08
Cc1ccc(CNCc2cccnc2-n2ccnc2)o1	-12%	1.54
Cc1nc(-c2cnn(C)c2)oc1C(=O)N[C@H](C)C(C)(C)C	-8%	0.93
COc1ccc(C)cc1NC(=O)C1CCN(S(=O)(=O)Cc2cccc(C)c2)CC1	-8%	1.45
Cn1ncc(NC(=O)Cn2cc(-c3ccc4cc(Cl)ccc4n3)cn2)n1	-1%	0.12
COC(=O)C(NC(=O)C(C)Oc1ccccc1)C(C)C (stereo not given)	12%	-1.65
Cc1n[nH]cc1CN[C@H]1COc2ccccc21	-12%	1.86
CCn1ccnc1[C@H]1OCCC[C@@H]1NCc1ccc(Cl)cc1	-9%	1.38
CC(=O)NCCCC1(C2OCCO2)CCCCCC1	-4%	0.41
Cc1ccc(NC(=O)N2CCC2(C)C)cc1NC(=O)N1CCC1(C)C	-7%	1.25
OCc1cc(-c2cc(NC3CCCC3)nc3[nH]ccc23)ccc1O	-10%	1.89
Cc1nc(C(C)C)cc(N2CCN(C)[C@]3(CCC(=O)N(CC4CC4)CC3)C2)n1	9%	-0.79
